# Experimental data published in article PMC4336329 (PLoS ONE, 2015).
# The whole screen tested about 310,000 compounds, of which about 14,000 (4.5%) showed an effect of 50% or more. Effects have a minus sign here. The list shows a part of the results.
# Molecular target: human ether-à-go-go-related gene (hERG) potassium channel (human, UniProt Q12809)
# Assay: primary screen, population patch clamp on CHO cells stably expressing hERG
# 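Note: peak tail current of the secondary pulse compared with the same well before compound.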
# human ether-à-go-go-related gene (hERG) potassium channel, sequence (Q12809 whole entry, looked up): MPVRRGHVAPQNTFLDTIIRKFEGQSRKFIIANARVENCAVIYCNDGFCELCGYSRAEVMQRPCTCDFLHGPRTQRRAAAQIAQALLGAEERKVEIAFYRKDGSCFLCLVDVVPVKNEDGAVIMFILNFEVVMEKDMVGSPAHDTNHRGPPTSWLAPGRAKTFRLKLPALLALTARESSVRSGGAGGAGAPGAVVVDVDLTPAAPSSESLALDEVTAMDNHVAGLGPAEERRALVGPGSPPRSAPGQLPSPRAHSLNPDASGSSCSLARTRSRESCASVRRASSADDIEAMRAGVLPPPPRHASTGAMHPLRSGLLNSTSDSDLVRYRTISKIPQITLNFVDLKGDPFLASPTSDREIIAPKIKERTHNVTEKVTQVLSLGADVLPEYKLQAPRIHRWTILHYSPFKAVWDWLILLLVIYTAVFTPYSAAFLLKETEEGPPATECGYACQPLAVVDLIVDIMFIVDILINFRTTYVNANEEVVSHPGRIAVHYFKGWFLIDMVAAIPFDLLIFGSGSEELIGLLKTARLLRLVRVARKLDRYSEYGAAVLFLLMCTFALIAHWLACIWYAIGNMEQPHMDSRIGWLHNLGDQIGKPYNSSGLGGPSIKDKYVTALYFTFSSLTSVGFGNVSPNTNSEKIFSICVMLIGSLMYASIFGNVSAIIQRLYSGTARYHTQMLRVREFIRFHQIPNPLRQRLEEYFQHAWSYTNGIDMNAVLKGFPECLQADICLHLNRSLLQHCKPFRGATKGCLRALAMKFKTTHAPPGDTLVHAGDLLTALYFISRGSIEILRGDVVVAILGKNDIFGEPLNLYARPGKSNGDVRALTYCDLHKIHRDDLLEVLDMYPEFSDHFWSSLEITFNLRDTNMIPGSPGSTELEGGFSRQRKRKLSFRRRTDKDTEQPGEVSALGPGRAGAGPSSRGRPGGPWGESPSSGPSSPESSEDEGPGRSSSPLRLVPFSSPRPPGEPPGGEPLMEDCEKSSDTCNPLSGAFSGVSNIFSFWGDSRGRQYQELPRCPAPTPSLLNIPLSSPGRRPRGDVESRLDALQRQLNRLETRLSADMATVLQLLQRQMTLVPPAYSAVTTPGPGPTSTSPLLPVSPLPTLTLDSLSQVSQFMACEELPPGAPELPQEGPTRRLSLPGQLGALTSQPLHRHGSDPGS
row,SMILES,"hERG current change (%, negative = inhibition) at 10uM [%]"
1,CC(Nc1ccccc1)c1ccncc1 (centres unmarked),15.2
2,CCOC(=O)C(C)c1n[nH]c(=O)c2ccccc12 (centres unmarked),0.668
3,CCCCOC(=O)N1CCOCCOCCOCC1,10.8
4,Cc1cc(/C=N/n2cnnc2)c(C)n1-c1ccc(Cl)cc1,-13.6
5,Cc1ccc(CNC(=O)C(=O)NCCC2=CCCCC2)cc1,17
6,CCN(CC)c1ccc(S(=O)(=O)N2CCOCC2)cc1NC(=O)Cn1nc(C)c([N+](=O)[O-])c1C,-44
7,COc1cccc(N2CCN(C(=S)Nc3cc(C)cc(C)c3)CC2)c1,22.4
8,c1ccc(-c2ccc3ccccc3n2)cc1,-2.62
9,CCO/N=C(\C)c1c(O)c2ccccc2n(C)c1=O,9.54
10,OCCN1C[C@H](O)[C@@H](O)[C@H](O)[C@H]1CO,-2.47
11,C/C=C(\C)C(=O)Nc1cccc(C2=NOC3(C2)C[C@@H](C(N)=O)N(C(=O)c2cc([N+](=O)[O-])cc([N+](=O)[O-])c2C)C3)c1 (some centres unmarked),-7.16
12,CC(C)Oc1ccccc1C1NC(=O)CCC1[N+](=O)[O-] (centres unmarked),18
13,O=C(c1ccc(Cl)cc1)c1cnc(Nc2ccccc2)s1,10.7
14,C(=N\n1cnnc1)/c1ccc(OCc2ccccc2)cc1,-10.9
15,CCC(C)NS(=O)(=O)c1ccc(OCC(=O)Nc2ccc(F)cc2F)cc1 (centres unmarked),-2.06
16,Cc1ccc(S(=O)(=O)NCc2ccccc2)cc1C(=O)N(C)CC(=O)Nc1c(Cl)cccc1Cl,-30.4
17,COc1ccccc1/C=C/C(=O)NCC(=O)N/N=C/c1cccnc1,16.8
18,O=C(NCc1ccccc1)/C(=C/c1cccc([N+](=O)[O-])c1)NC(=O)c1ccco1,-61.2
19,CCC1=C(c2ccc(C)cc2)S(=O)(=O)N=C1N1CCC(C(=O)NCCCN2CCCCC2)CC1,20.5
20,Cc1ccc(NC(=O)N2CCCC2C(=O)Nc2ccc3c(c2)OCO3)cc1 (centres unmarked),1.95

row,SMILES,"hERG current change (%, negative = inhibition) at 10uM [%]"
1,CCOc1ccc(-c2nonc2NC(=O)c2ccco2)cc1,-0.579
2,c1ccc(-c2n[nH]c3c2CCC3)cc1,4.75
3,Cc1cccc(N(CC(=O)N2CCCCCC2)S(C)(=O)=O)c1C,8.62
4,CC(C)C(=O)Nc1ccc(C(=O)N2CCCCCC2)cc1,0.706
5,Cc1cc(C)cc(NC(=O)C(C)N2C(=O)c3ccccc3C2=O)c1 (centres unmarked),11.1
6,COc1cccc(C2=NOC(C(=O)Nc3cc(C)nn3-c3ccccc3)C2)c1OC (centres unmarked),-18.2
7,CC1CCCCN1C(=O)Nc1cccc(C(F)(F)F)c1 (centres unmarked),3.28
8,O=C(CSc1ccccc1C(=O)O)NC1CCCCCC1,1.79
9,CC1CCCCC1NC(=O)CSc1ccc([N+](=O)[O-])cc1 (centres unmarked),-52.6
10,O=C(NC(NC(=S)Nc1ccc(Cl)cc1)C(Cl)(Cl)Cl)c1ccco1 (centres unmarked),0.15
11,COc1ccc(NC(=O)COC(=O)c2c3c(nc4ccccc24)CCCC3)cc1,-3.3
12,CC(C)Oc1ccc(C(=O)OCC(=O)NCCNC(=O)COC(=O)c2ccc(OC(C)C)cc2)cc1,1.17
13,CCCOC(=O)Cn1cnc2scc(-c3ccc(C)cc3)c2c1=O,2.31
14,O=C(CNC(=S)N(Cc1ccccc1)Cc1cccnc1)NCCN1CCOCC1,2.12
15,Cc1ccc(CCNC(=O)C2CC(c3ccc(C(F)(F)F)cc3)=NO2)cc1 (centres unmarked),18
16,COc1cc(/C=C2\SC(=S)N(CCC(=O)Nc3ccccc3O)C2=O)cc(OC)c1OC,12.9
17,Cc1ccn2c(NC(C)(C)C)c(-c3cccs3)nc2c1,-22.8
18,CC(=O)Nc1cc(C(=O)N2CCOCC2)ccc1S(=O)(=O)c1ccc(C)cc1,15.3
19,CNC(=S)NNC(=O)c1sccc1C,2.64
20,COc1cccc(OC)c1C(=O)Nc1nc2ccc(S(C)(=O)=O)cc2s1,3.36

row,SMILES,"hERG current change (%, negative = inhibition) at 10uM [%]"
1,CCOc1ccccc1Nc1cc(C)nc2nnnn12,12.9
2,O=P(C(Cl)Cl)(N1CCOCC1)N1CCOCC1,25
3,COc1ccc(NC(=O)Oc2cc(C)ccc2C(C)C)cc1,10.5
4,Cc1nc2ccccc2cc1C(=O)N(C)Cc1ccccc1,14.2
5,CCc1ccc2nc3sc(C(=O)O)cc3cc2c1,40.9
6,O=C(NCCCN1CCCC1=O)c1cccs1,-4.09
7,COc1cc(NC(C)=O)ccc1-c1cc2ccccc2oc1=O,-7.81
8,N#CC1=C(N)N=C(SCc2ccccc2)C(C(N)=O)C12CCCCC2 (centres unmarked),-1.82
9,CCOC(=O)c1nnn(-c2ccc(OC)cc2)c1N,8.4
10,COc1ccc(/C=N/Nc2nnc(Cc3ccc(OC)c(OC)c3)c(=O)[nH]2)cc1,-1.91
11,Cl.O=C(O)CN1C2=NCCCN2c2ccccc21,16.1
12,CCN(CC(=O)NCc1cccs1)C(=O)c1ccc(NS(=O)(=O)c2ccc(F)cc2)cc1,-6.21
13,Cc1cc(N)n2nc(-c3ccc(C(C)(C)C)cc3)cc2n1,8.26
14,COc1ccc(NC(=O)CCS(=O)(=O)c2cccc3nonc23)cc1,13.2
15,O=[N+]([O-])c1cccnc1NCCc1ccccc1,-18.9
16,CCN1CCN(c2ncnc3c2sc(=S)n3-c2ccccc2)CC1,-6.04
17,O=c1oc2ccccc2c2c1nc(C(F)(F)F)n2-c1ccccc1,0.356
18,COCCN(C(=O)/C=C/c1ccccc1)c1c(N)n(Cc2ccccc2)c(=O)[nH]c1=O,10.8
19,O=c1[nH]c(/C(=N\O)c2ccccc2)no1,25.8
